For part of its entries the source gives two or more results. They are shown here; other results are not. There may be further records. Values given together are repeated measurements (runs, samples, wells, individuals or studies). Brackets tell where a record comes from. The letters are not those of the source and start again with each entry.
Test system: CEM cells HIV-1 protection, formazan growth assay
Assay: NCI AIDS Antiviral Assay
Conditions: for IC50: measured here: growth of uninfected CEM cells
Procedure, shortened: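 Five concentrations of each compound were applied to infected and uninfected human CEM cells. Protection from HIV-1 was judged from growth measured with a soluble formazan assay.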

Row | Structure (SMILES) | IC50 | EC50
1 | CCCCCCCCCCCCCCCCP(=O)(O)OP(=O)(O)OCC1OC(n2ccc(N)nc2=O)C(O)C1O (stereo not drawn) | 69.2 µM [sample A] and 575 nM [sample B] | 
2 | CC1(C)CNCC2(C)OCCCCCCCCCCOC3(C)CNCC(C)(C)[N-]C(=O)C(C)(CNCC(C)(C)[N-]C3=O)OCCCCCCCCCCOC(C)(CNCC(C)(C)[N-]C2=O)C(=O)[N-]1.[Ni+2].[Ni+2] | 13.8 µM [sample A] and 182 µM [sample B] | 
3 | COc1ccc(/C=C2/N=C(N/N=C\C(O)C(O)C(O)C(O)CO)NC2=O)cc1 (stereo not drawn) |  | 4.79 µM [sample A] and > 200 µM [sample B]

— PubChem BioAssay AID179 (DTP/NCI, 2004)
